Results are given in words; binding and its absence hold for the method and conditions named. For some of these results: Binding seen in cells or lysates may run through a third protein. Some binding calls cover weakened binding; strength is not graded here. For some of these results: Sequences can lack the tags named with a protein.
Legend:
[1] = target: Nbs1-(1–335)-GST (human) (UniProt O60934); experiment: pull-down; GST pull-down from Sf21 insect cells co-infected with baculoviruses for the GST-tagged partner (bait) and the Flag-tagged partner; NETN buffer; immunoblotting
[2] = target: Nbs1-(1–335)-K160M-GST (human) (UniProt O60934); experiment: as above
[3] = target: Nbs1-(1–335)-R28A-GST (human) (UniProt O60934); experiment: as above
[4] = target: Nbs1-(1–335)-R28A/K160M-GST (human) (UniProt O60934); experiment: as above
[5] = target: T1, GST-CtIP 462-end (human) (UniProt Q99708); experiment: as above
T1 sequence: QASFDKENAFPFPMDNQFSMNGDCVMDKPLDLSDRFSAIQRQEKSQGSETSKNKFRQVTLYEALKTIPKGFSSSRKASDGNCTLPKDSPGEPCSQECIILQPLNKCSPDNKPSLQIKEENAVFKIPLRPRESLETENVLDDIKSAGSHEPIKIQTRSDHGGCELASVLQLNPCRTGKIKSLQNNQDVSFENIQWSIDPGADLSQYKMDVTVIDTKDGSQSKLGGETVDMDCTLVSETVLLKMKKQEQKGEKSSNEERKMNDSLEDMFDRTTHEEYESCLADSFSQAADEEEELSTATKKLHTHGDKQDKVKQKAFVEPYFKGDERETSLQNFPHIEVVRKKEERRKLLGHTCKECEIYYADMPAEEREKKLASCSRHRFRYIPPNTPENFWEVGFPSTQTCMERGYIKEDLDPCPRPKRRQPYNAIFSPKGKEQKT

The chains behind the UniProt entries cited, without tags or fusion partners. Where a name states a change or a piece, a line headed by the entry shows the natural chain unless it says otherwise. A line that says so, or that is headed by a name, gives the form on record, which may keep a tag or linker. Residues count along the entry.
Purified Nbs1(1–335) (O60934, residues 1-335): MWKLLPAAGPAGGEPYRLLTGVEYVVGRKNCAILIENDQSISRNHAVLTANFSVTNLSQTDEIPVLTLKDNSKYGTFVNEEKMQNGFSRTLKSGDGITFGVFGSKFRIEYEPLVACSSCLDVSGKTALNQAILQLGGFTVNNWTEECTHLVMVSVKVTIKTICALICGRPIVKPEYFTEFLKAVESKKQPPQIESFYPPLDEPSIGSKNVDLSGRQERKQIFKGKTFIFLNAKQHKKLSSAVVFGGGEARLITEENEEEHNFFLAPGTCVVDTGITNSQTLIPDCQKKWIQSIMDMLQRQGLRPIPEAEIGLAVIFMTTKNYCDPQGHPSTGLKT
Flag-Nbs1 336-end (O60934, residues 336-754): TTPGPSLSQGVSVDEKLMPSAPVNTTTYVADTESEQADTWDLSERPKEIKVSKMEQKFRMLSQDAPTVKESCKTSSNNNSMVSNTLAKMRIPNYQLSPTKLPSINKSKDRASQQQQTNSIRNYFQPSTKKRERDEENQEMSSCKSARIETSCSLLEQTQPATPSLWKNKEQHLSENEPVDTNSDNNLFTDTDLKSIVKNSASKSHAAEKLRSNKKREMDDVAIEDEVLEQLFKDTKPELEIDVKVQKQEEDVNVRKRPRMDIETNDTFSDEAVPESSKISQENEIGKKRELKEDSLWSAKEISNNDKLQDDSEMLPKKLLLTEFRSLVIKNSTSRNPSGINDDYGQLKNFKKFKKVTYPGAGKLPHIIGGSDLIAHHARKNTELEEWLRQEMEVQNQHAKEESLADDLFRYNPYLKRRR
Nbs1-(1–335)-K160M-GST (O60934, form named): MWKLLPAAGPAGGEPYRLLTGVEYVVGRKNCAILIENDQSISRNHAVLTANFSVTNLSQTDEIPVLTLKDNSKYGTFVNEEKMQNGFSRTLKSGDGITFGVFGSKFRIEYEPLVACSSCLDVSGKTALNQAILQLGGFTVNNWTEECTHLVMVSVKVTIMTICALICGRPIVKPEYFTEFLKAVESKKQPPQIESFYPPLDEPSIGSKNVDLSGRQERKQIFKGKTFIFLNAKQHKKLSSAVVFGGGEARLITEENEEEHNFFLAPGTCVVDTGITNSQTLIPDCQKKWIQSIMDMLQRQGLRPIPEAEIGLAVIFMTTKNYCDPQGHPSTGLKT
Nbs1-(1–335)-R28A-GST (O60934, form named): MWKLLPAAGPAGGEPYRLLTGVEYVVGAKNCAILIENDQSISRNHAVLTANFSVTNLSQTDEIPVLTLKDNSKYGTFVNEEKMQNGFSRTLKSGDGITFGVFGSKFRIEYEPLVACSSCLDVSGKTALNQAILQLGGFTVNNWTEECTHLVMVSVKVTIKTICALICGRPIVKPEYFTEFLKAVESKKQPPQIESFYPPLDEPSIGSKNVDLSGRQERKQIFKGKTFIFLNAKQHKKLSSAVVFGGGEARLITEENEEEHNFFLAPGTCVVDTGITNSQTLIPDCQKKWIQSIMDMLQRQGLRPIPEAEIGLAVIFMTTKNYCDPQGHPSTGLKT
Nbs1-(1–335)-R28A/K160M-GST (O60934, form named): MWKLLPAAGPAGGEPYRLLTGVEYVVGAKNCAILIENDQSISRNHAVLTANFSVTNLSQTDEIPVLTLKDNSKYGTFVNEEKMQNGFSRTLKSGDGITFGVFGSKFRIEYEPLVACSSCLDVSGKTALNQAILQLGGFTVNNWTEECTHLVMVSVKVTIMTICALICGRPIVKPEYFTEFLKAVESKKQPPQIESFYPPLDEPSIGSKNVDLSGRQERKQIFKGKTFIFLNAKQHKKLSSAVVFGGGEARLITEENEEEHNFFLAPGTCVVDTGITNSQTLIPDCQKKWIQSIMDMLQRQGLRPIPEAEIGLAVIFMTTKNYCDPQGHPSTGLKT

[6] = target: T2, GST-CtIP-12A-CDK (purified) (human) (UniProt Q99708); experiment: pull-down; purified Nbs1(1–335) or Nbs1(1–335)-RRHK incubated with purified CtIP-WT or CtIP-12A-CDK coupled to glutathione agarose beads; Western blot with anti-His and anti-GST; both purified
T2 sequence: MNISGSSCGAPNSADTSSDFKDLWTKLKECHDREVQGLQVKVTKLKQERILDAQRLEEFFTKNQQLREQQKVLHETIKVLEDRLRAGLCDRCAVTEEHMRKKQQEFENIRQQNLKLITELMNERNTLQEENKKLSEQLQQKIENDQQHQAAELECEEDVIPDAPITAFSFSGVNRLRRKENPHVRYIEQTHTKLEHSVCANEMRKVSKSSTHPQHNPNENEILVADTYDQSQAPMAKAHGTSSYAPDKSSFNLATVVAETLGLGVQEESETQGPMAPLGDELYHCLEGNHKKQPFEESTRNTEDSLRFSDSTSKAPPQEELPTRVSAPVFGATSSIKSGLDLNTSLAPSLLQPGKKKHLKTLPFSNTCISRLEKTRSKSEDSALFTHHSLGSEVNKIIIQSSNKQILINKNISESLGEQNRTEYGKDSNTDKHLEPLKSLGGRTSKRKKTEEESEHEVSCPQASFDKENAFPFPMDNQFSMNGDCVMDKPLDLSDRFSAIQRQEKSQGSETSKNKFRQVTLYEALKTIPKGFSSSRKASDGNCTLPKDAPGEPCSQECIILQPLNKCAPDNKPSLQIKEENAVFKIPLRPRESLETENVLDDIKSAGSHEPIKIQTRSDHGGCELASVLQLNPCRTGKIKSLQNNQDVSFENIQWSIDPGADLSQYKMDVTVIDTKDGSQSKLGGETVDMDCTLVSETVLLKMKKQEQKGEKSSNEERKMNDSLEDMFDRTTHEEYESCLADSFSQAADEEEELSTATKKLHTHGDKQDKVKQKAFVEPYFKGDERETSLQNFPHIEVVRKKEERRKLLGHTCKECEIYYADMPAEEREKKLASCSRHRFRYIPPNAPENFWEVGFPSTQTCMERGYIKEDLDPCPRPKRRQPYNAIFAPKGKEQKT

| Substance | binding [1] | also measured |
| --- | --- | --- |
| CtIP-(200–600) fragment containing the 5A-CDK mutation (from UniProt Q99708 200-600) (domain or fragment) | no binding | – |
| CtIP-(200–600) fragment containing the 7A-CDK mutation (from UniProt Q99708 200-600) (domain or fragment) | no binding | – |
| CtIP-(200–600)-S549A/S568A (from UniProt Q99708 200-600) (domain or fragment) | binds | – |
| CtIP-(200–600)-T245A/S276A/S347A (from UniProt Q99708 200-600) (domain or fragment) | binds | – |
| Flag-Nbs1 336-end (from UniProt O60934 336-754) (domain or fragment) | – | binding [5]: binds |
| Purified Nbs1(1–335) (from UniProt O60934 1-335) (domain or fragment) | – | binding [6]: no binding |

Now from value to substance, other results behind:

| binding [1] | Substance | also measured |
| --- | --- | --- |
| no binding | CtIP-(200–600) with all CDK sites mutated (7A+S327A) (from UniProt Q99708 200-600) (domain or fragment) | – |
| binds | CtIP-(200–600)-S233A/S245A/S276A (from UniProt Q99708 200-600) (domain or fragment) | – |
| binds | CtIP-(200–600)-T315A/S347A (from UniProt Q99708 200-600) (domain or fragment) | – |
| binds | Flag-CtIP 200–600 fragment (from UniProt Q99708 200-600) (domain or fragment) | binding [2]: binds; binding [3]: binds; binding [4]: no binding |

Reference: paper PMC3585124
